# Some of the results follow.
# How the values were obtained:
# Assay in all cases: glycan array binding signal (z-score within array); higher = stronger binding
# Details in all cases: glycan notation: IUPAC condensed, linker removed
# GalNAc(b1-4)GlcNAc = molecular target: GalNAc(b1-4)GlcNAc
# How it was run: (§1)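 The binding signal is a Z-score computed within each array and averaged over linkers. Arrays of the same protein sequence at different concentrations or buffers were also averaged together. Data originate from 3228 arrays in the Consortium for Functional Glycomics database, kept only where the protein sequence was available.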
# [1] = molecular target: GalNAc(b1-4)GlcNAc(b1-2)Man
# How it was run: as §1
# [2] = molecular target: GalNAc(b1-4)GlcNAc(b1-2)Man(a1-3)[GalNAc(b1-4)GlcNAc(b1-2)Man(a1-6)]Man(b1-4)GlcNAc(b1-4)GlcNAc
# How it was run: as §1
# [3] = molecular target: GalNAc(b1-4)GlcNAc(b1-3)GalNAc(b1-4)GlcNAc
# How it was run: as §1
# GalNAc(b1-4)GlcNAc6S = molecular target: GalNAc(b1-4)GlcNAc6S
# How it was run: as §1
# GalNAc(b1-6)GalNAc = molecular target: GalNAc(b1-6)GalNAc
# How it was run: as §1
# GalNAc3S(b1-4)GlcNAc = molecular target: GalNAc3S(b1-4)GlcNAc
# How it was run: as §1
# GalNAc3S(b1-4)GlcNAc3S = molecular target: GalNAc3S(b1-4)GlcNAc3S
# How it was run: as §1
# [4] = molecular target: GalNAc3S(b1-4)[Fuc(a1-3)]GlcNAc
# How it was run: as §1
# GalNAc4S6S(b1-4)GlcNAc = molecular target: GalNAc4S6S(b1-4)GlcNAc
# How it was run: as §1
# GalNAc6S(b1-4)GlcNAc = molecular target: GalNAc6S(b1-4)GlcNAc
# How it was run: as §1
# Glc(a1-4)Glc = molecular target: Glc(a1-4)Glc
# How it was run: as §1
# [5] = molecular target: Glc(a1-4)Glc(a1-4)Glc(a1-4)Glc
# How it was run: as §1
# Glc(a1-6)Glc(a1-6)Glc = molecular target: Glc(a1-6)Glc(a1-6)Glc
# How it was run: as §1
# [6] = molecular target: Glc(a1-6)Glc(a1-6)Glc(a1-6)Glc
# How it was run: as §1
# Glc(b1-4)Glc = molecular target: Glc(b1-4)Glc
# How it was run: as §1
# Glc(b1-6)Glc = molecular target: Glc(b1-6)Glc
# How it was run: as §1
# GlcA(b1-3)Gal = molecular target: GlcA(b1-3)Gal
# How it was run: as §1
# GlcA(b1-3)GlcNAc = molecular target: GlcA(b1-3)GlcNAc
# How it was run: as §1
# GlcA(b1-6)Gal = molecular target: GlcA(b1-6)Gal
# How it was run: as §1
# [7] = molecular target: GlcA3S(b1-3)Gal(b1-4)GlcNAc(b1-2)Man
# How it was run: as §1
# [8] = molecular target: GlcA3S(b1-3)Gal(b1-4)GlcNAc(b1-3)Gal(b1-4)Glc
# How it was run: as §1
# [9] = molecular target: GlcNAc(a1-3)Gal(b1-4)GlcNAc
# How it was run: as §1
# [10] = molecular target: GlcNAc(a1-4)Gal(b1-3)GlcNAc
# How it was run: as §1
# [11] = molecular target: GlcNAc(a1-4)Gal(b1-4)GalNAc
# How it was run: as §1
# [12] = molecular target: GlcNAc(a1-4)Gal(b1-4)GlcNAc
# How it was run: as §1
# [13] = molecular target: GlcNAc(a1-4)Gal(b1-4)GlcNAc(b1-3)Gal(b1-4)Glc
# How it was run: as §1
# [14] = molecular target: GlcNAc(a1-4)Gal(b1-4)GlcNAc(b1-3)Gal(b1-4)GlcNAc
# How it was run: as §1
# [15] = molecular target: GlcNAc(a1-4)Gal(b1-4)GlcNAc(b1-3)Gal(b1-4)GlcNAc(b1-3)Gal(b1-4)GlcNAc
# How it was run: as §1
# [16] = molecular target: GlcNAc(a1-4)Gal(b1-4)GlcNAc(b1-3)Gal(b1-4)[Fuc(a1-3)]GlcNAc(b1-3)Gal(b1-4)[Fuc(a1-3)]GlcNAc
# How it was run: as §1
binder,measurement,setting,value
"InvD YPIII (Yersinia pseudotuberculosis), B1JSC0 (protein) MIKYFSFFKKPEPIVGILPNRQSHHILPTHIRRVAWGTLLLQLFIPLSVSFSPAIAAMKASKADTMVSYSSTEPYVLGSGETVAMVAKKYGITVDELKKINIYRTFSRPFTALTTGDEIDIPRKASPFSVDNNKDNRLSVENTLAGHAVAGATALSNGDVAKSGERMVRSAASNEFNNSAQQWLSQFGTARVQLNINDDFHLDGSAADVLIPLYDNEKSILFTQLGARNKDSRNTVNMGAGVRTFQGNWMYGANTFFDNDLTGKNRRIGVGAEAWTDYLKLSANNYFGITDWHQSRDFIDYNERPANGYDLRAEAYLPSYPQLGGKAMYEKYRGDDVALFGKDNRQKNPHAITAGVNYTPIPLVTIGAEHRAGKGGQNDSNINFQLNYRLGETWQSHIDPSAVAASRTLAGSRYDLVERNNHIVLDYQKQNLVRLSLPDSLAGDPFSQLSVTAQVTATHGLERIDWQSAELMAAGGVLKQTSKNGLEITLPEYQMNRTGGNSYILNAIAYDTQGNASSQASMLITVNAQKINIANSTLVAVPINIEANNSDTSVVTLTLKDDNNIPVTGQDVTFLSPLGTLSAMTDSGNGVYTATLTAGTVSGTTAVSSNINGSALDMTPATVTLNGNSGELSITHSMLVAAPVNIEANGSDTSVVTLTLRDSNNNPVTGQTVTFAGTLGTLGAVTEGSSGVYTATLTAGIMVGTSSITASVNSTALGVTPATVTLNGDSGNLSTTNSTLVAAPVNIEANSSDTSVVTLTLRDNNNNPVTGQTVVFTSTLGTLGNVTEQASGVYTATLTAGTVSGVASLSVSVGGNALGVTPATVTLNGDSGNLSTTNSTLVAAPVNIEANSSDTSVVTLTLRDNNNNPVTGQTVNFAGTLGTLGTVSEGSSGVYTTTLTAGTVAGVASLSVNVGGNALGVTPATVTLNGNSGNLSATNSTLVAAPVNIEANSSDTSVVTLTLRDNNNNPVTGQTVAFTSTLGTLGNVTEQASGVYTATLTAGTVSGVASLSVSVNSNALGVTPATVTLNGDSGNLSTTNSTLVAAPVNIEANSSDTSVVTLTLRDNNNNPVTGQTVAFTSTLGTLGNVTEQASGLYTATLTAGTVSGVASLSVNVGGNALGVTPATVTLNGDSGNLSATNSTLVAAPVNIEANSSDTSVVTLTLRDNNNNPVTGQTVAFTSTLGTLGNVTEQASGLYTATLTAGTVSGVASLSVNVGGTALGVTPATVTLNGDSGNLSTTNSTLVAAPVNIEANSSDTSVVTLTLRDNNNNPVTGQTVAFTSTLGTLGNVTEQASGLYTATLTAGTVSGVASLSVSVNSTALGVTPATVTLNGDSGNLSTTNSTLVAAPVNIEANSSDTSVVTLTLRDNNNNPVTGQTVAFTSTLGTLGNVTEQASGVYTATLTAGTVAGVASLSVNVGGNALGVTPATVTLNGDSGNLSTTNSTLVAAPVNIEANSSDTSVVTLTLRDNNNNPVTGQTVAFTSTLGTLGNVTEQASGVYTATLTAGTVSGVASLSVSVGSSALGVTPATVTLNGDSGNLSTTNSTLVAAPVNIEANNSDTSVVTLTLRDNNNNPVTGQTVAFTSTLGTLGNVTEQASGVYTATLTAGTVSGVASLSVSVNSNALGVTPATVTLNGDSGNLSTTNSTLVAAPVNIEANSSDTSVVTLTLRDNNNNPVTGQTVVFTSTLGTLGNVTEQASGLYTATLTAGTVSGVASLSVSVGGNALGVTGNITLAPGALDAARSILAVNKPSINADDRIGSTITFTAQDAQGNAITGLDIAFMTDLENSQIMTLVDHNDGTYTANINGTQTGIANIAVQSSGATIAGLAATMVTITPGAWNTTQATPVMTVALPITTCQSSSGVYKRYYIGIVTHELYDNYGNEISGILTYNLGAGRYTTVTSQNSSVSGSNGLTRRSNSPVSHFILTSDAYTSQAACYAERIANVNVTITVTAITDDFKTSAVNKVFILGTGSN",glycan array binding signal (z-score),GalNAc(b1-4)GlcNAc,0.01
same,glycan array binding signal (z-score),[1],-0.243
same,glycan array binding signal (z-score),[2],-0.078
same,glycan array binding signal (z-score),[3],0.272
same,glycan array binding signal (z-score),GalNAc(b1-4)GlcNAc6S,0.354
same,glycan array binding signal (z-score),GalNAc(b1-6)GalNAc,-0.011
same,glycan array binding signal (z-score),GalNAc3S(b1-4)GlcNAc,0.02
same,glycan array binding signal (z-score),GalNAc3S(b1-4)GlcNAc3S,1.04
same,glycan array binding signal (z-score),[4],-0.139
same,glycan array binding signal (z-score),GalNAc4S6S(b1-4)GlcNAc,0.048
same,glycan array binding signal (z-score),GalNAc6S(b1-4)GlcNAc,-0.302
same,glycan array binding signal (z-score),Glc(a1-4)Glc,-0.36
same,glycan array binding signal (z-score),[5],-0.206
same,glycan array binding signal (z-score),Glc(a1-6)Glc(a1-6)Glc,-0.313
same,glycan array binding signal (z-score),[6],-0.312
same,glycan array binding signal (z-score),Glc(b1-4)Glc,-0.166
same,glycan array binding signal (z-score),Glc(b1-6)Glc,-0.147
same,glycan array binding signal (z-score),GlcA(b1-3)Gal,0.38
same,glycan array binding signal (z-score),GlcA(b1-3)GlcNAc,-0.299
same,glycan array binding signal (z-score),GlcA(b1-6)Gal,0.048
same,glycan array binding signal (z-score),[7],-0.258
same,glycan array binding signal (z-score),[8],-0.081
same,glycan array binding signal (z-score),[9],-0.108
same,glycan array binding signal (z-score),[10],-0.212
same,glycan array binding signal (z-score),[11],-0.218
same,glycan array binding signal (z-score),[12],-0.244
same,glycan array binding signal (z-score),[13],-0.175
same,glycan array binding signal (z-score),[14],0.308
same,glycan array binding signal (z-score),[15],-0.246
same,glycan array binding signal (z-score),[16],1.22
